{"source": "the supplement of paper PMC11417369", "note": "± gives the standard deviation of the averaged measurements. Some of the results follow."}
{"test_system": "PfAP2-LT AP2 domain (GST-tagged)", "experiment": "gcPBM binding intensity (ln(normalized median fluorescence intensity)); higher = stronger DNA binding", "method_in_brief": "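Binding intensity is defined as the maximum Masliner-normalised natural-log median intensity across replicate spots for either probe orientation. It was measured on an Agilent 4 × 180k array of primer-extended double-stranded 36-bp intergenic genomic probes and negative controls, to which GST-tagged P. falciparum DNA-binding domains made in E. coli were applied for 1 h in 1× PBS with 1% milk, 0.2 mg/ml BSA, 0.5% salmon testes DNA and 0.03% Triton X-100. Detection was by Alexa488 anti-GST antibody and scanning at 488 nm.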"}
{"sequence": "AAAATATAAAAAGTCACACATATATATATTTATTTA [CACACA_site4872]", "gcPBM binding intensity (ln)": "8.64 ± 0.45"}
{"sequence": "TTGAATGAAAAAATTTGTACTCATATAAATAATTTA [XGTACX_site4628]", "gcPBM binding intensity (ln)": "8.24 ± 0.48"}
{"sequence": "ATAAAATATTAGACATTTATTAATATTACACATATC [XGTACX_negctrl_site364]", "gcPBM binding intensity (ln)": "8.66 ± 0.41"}
{"sequence": "ACAAAATAAACCACGTGTACAAATTTATAATGTGTA [XGTACX_site1153]", "gcPBM binding intensity (ln)": "9.09 ± 0.42"}
{"sequence": "ATATATATATATTCCACACACACACCCAAAAAAAAA [CACACA_site3649]", "gcPBM binding intensity (ln)": "9.745 ± 0.05"}
{"sequence": "TTTTATTTTTTATTTGCACACAATATGTAAAAAAAT [CACACA_site2927]", "gcPBM binding intensity (ln)": "8.78 ± 0.38"}
{"sequence": "AATAATTTTTAAATATAAACATTTTTTTTTTTTTTT [GTGCAC_negctrl_site532]", "gcPBM binding intensity (ln)": "8.11 ± 0.45"}
{"sequence": "ATTAAATGCACATATACACACACCCAATTTTAAGTT [CACACA_site3049]", "gcPBM binding intensity (ln)": "9.53 ± 0.34"}
{"sequence": "TATTTTAAAAAAAAAAGTACACATAATATATATAAC [XGTACX_site5416]", "gcPBM binding intensity (ln)": "8.57 ± 0.57"}
{"sequence": "ATACATTTATTGTATTGTACATAATATTATATATTC [XGTACX_site7115]", "gcPBM binding intensity (ln)": "8.88 ± 0.4"}
{"sequence": "TAATATAATAGAAGTGTACACACATATTTATGGGTG [CACACA_site9023]", "gcPBM binding intensity (ln)": "9.35 ± 0.37"}
{"sequence": "TAATATAATGATGCAGTGCATATGTTAAAATGAAAA", "gcPBM binding intensity (ln)": "8.93 ± 0.52"}
{"sequence": "TCAAAAGAATAATTGGTGCAAATTATATAATATAAT [GTGCAC_site9804]", "gcPBM binding intensity (ln)": "8.73 ± 0.45"}
{"sequence": "ATATTTATGGAAAAAGAACACACAATCAAACAAAAA [CACACA_site9233]", "gcPBM binding intensity (ln)": "9 ± 0.47"}
{"sequence": "CTTTTTTATATCTCTACACACATTTATAACCATTTG [CACACA_site4897]", "gcPBM binding intensity (ln)": "9.1 ± 0.6"}
{"sequence": "ACAAGGAATATATAAGATAATTTTAAATATAACACG [CACACA_negctrl_site1734]", "gcPBM binding intensity (ln)": "8.73 ± 0.51"}
{"sequence": "ATATATATAATTTTTACACACGCAATAAATATATAT [CACACA_site218]", "gcPBM binding intensity (ln)": "8.92 ± 0.33"}
{"sequence": "TATTAATTAAACCATACACACATAACTTTTTTATAA [CACACA_site6526]", "gcPBM binding intensity (ln)": "8.78 ± 0.35"}
{"sequence": "ATTTTTTTCTTAGGAGTGCACTTATATTTATTTTAT", "gcPBM binding intensity (ln)": "8.95 ± 0.45"}
{"sequence": "TATAAGGTGTCCTATACACACTCCAATAAATATATA [CACACA_site2091]", "gcPBM binding intensity (ln)": "8.73 ± 0.47"}
{"sequence": "TAAAGAGAAAAACATACACACACAACAAAATATGTA [CACACA_site8872]", "gcPBM binding intensity (ln)": "9.52 ± 0.35"}
{"sequence": "AGGAACATAAGCAATGTATAAACATAAAACTATAAT [CACACA_negctrl_site1832]", "gcPBM binding intensity (ln)": "9.06 ± 0.53"}
{"sequence": "AAAAAAAAAAAAAACACACACACACCCACATATACA [CACACA_site2663]", "gcPBM binding intensity (ln)": "10.2 ± 0.16"}
{"sequence": "AATCAAAATATATCTACACACATTTAAGTAACACAT [CACACA_site3482]", "gcPBM binding intensity (ln)": "9.08 ± 0.34"}
{"sequence": "TTATAATAAAGAGGAGTGCAAAAAAAAAAAAAAAAA", "gcPBM binding intensity (ln)": "8.68 ± 0.35"}
